Assay results reported in publication PMC4336329 (PLoS ONE, 2015).
The campaign covered roughly 310,000 compounds. About 14,000 (4.5%) showed an effect of 50% or more. The effect is printed as a negative number. Some of the results follow.

biological target: human ether-à-go-go-related gene (hERG) potassium channel (human, UniProt Q12809); assay: primary screen, population patch clamp on CHO cells stably expressing hERG
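Note: peak tail current of the secondary pulse compared with the same well before compound.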

Sequence of human ether-à-go-go-related gene (hERG) potassium channel (Q12809 whole entry, looked up): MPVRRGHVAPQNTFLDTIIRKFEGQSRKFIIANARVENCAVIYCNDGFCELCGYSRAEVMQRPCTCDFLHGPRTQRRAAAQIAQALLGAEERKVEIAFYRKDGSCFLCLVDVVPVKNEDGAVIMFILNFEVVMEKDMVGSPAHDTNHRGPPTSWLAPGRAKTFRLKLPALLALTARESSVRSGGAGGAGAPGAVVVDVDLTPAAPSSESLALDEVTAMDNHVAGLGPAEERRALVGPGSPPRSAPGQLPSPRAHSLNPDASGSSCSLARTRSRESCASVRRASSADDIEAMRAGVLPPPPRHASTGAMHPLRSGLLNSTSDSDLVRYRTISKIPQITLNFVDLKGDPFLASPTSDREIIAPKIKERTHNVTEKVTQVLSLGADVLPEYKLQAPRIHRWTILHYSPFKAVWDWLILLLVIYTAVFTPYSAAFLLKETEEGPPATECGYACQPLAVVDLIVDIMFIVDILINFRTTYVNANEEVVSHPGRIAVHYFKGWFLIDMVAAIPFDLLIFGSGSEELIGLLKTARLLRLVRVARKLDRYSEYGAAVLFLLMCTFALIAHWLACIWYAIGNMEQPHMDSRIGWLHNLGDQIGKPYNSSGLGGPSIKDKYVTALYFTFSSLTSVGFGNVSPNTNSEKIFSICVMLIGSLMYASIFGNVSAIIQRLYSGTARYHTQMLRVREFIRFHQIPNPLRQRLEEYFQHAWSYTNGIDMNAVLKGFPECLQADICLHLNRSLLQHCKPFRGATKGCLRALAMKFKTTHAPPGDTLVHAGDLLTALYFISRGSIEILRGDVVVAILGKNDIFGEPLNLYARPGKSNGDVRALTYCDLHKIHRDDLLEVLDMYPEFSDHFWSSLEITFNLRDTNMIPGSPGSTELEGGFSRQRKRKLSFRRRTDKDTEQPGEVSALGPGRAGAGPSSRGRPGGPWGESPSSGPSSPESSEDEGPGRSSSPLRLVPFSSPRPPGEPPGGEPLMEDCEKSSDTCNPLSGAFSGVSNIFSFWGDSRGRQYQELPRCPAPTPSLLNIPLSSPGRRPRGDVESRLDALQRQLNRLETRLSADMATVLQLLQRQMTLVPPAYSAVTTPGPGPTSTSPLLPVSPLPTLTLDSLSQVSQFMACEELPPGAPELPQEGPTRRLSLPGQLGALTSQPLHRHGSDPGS

SMILES	hERG current change (%, negative = inhibition) at 10uM [%]
Cc1ccc(-c2cc(-c3nnc(SCC(=O)NCC(C)C)n3N)c3ccccc3n2)cc1	-3.71
CC(OC(=O)Cn1cnc2c1c(=O)n(C)c(=O)n2C)C(=O)NC1CCCCC1C (centres unmarked)	15.4
NC(=O)NCc1ccc(Cl)cc1	10.8
COc1ccc(OCc2nnc(SCC(=O)N3CCCc4ccccc43)n2-c2ccc(C)cc2)cc1	-3.12
Cc1cccc(NC(=O)N(C)Cc2cccs2)c1	-1.06
CSc1cc(-c2ccccc2)n(Cc2ccccc2Cl)c(=O)c1C#N	12
CCc1ccccc1NC(=O)COC(=O)C1CC(=O)N(c2ccc(F)cc2)C1 (centres unmarked)	-3.96
CCOC(=O)c1c(-c2ccsc2)csc1N	-15.4
COc1ccc(S(=O)(=O)n2nc(OC(=O)c3ccc(C)cc3)cc2N)cc1	5.2
CC(C)(C)CC(=O)Nc1nnc(SCC(=O)NC2CCCCC2)s1	-36.5
O=S(=O)(c1ccc(Cl)s1)N1CCN(c2ncccn2)CC1	-2.48
COc1ccc2ccccc2c1/C=N/NC(=O)c1cccc([N+](=O)[O-])c1	13.5
CC(C)(C)c1csc(NC(=O)CCc2ccccc2)n1	-37.7
O=C(NCCOc1ccccc1F)c1cccc(S(=O)(=O)N2CCN(c3ccccc3)CC2)c1	-3
O=C(c1noc2c1CCCC2)N1CCc2ccccc2C1	-10.7
COc1ccc(NC(=O)CSc2nnc(C3CC3)n2C)cc1S(=O)(=O)N1CCCCC1	-28.3
Cc1ccc2c(c1)C1(OCCCO1)C(=O)N2CC#N	17.3
CC(C)(C)N1C(=O)c2ccc(C(=O)O)cc2C1=O	16.9
Cc1ccc(NC(=O)COC(=O)c2ccc(OCc3c(C)noc3C)cc2)cc1S(=O)(=O)N1CCOCC1	-1.39
CCOC(=O)C(CCCOc1ccc(C)cc1)C(=O)OCC	-8.52
CN(C)c1ccc(/C=N/NC(=O)c2ccccc2Cl)cc1	10.6
Cc1cc(N2C(=O)C(O)=C(C(=O)c3ccco3)C2c2ccc([N+](=O)[O-])cc2)no1 (centres unmarked)	10.7

SMILES	hERG current change (%, negative = inhibition) at 10uM [%]
O=C(c1ccc(S(=O)(=O)NCc2ccco2)cc1)N1CCCC(C(F)(F)F)C1 (centres unmarked)	5.73
CN(CC(=O)Nc1cccc(F)c1)C(=O)COc1cccc2c1OC(C)(C)C2	-3.5
COc1ccc(CCNC(=O)CSc2nc3[nH]ncc3c(=O)n2-c2ccc(Br)cc2)cc1OC	5.85
Cc1onc(-c2ccccc2)c1C(=O)NC(=S)NNC(=O)c1cc(-c2ccc(F)cc2)n[nH]1	6.44
NS(=O)(=O)c1ccc(CCNC(=O)CSc2ccccc2)cc1	-3.62
CCN(CC)S(=O)(=O)c1ccc(C(=O)NCc2n[nH]c(=S)n2Cc2ccccc2)cc1	13.3
O=S(=O)(CCN1C=CC(C(F)(F)F)=NCC1)c1ccc(Cl)cc1Cl	-15.4
CCCN1C(=O)C(=O)N(CC(=O)c2cc(C)n(C3CC3)c2C)C1=O	-6.28
Cc1ccsc1C(=O)Nc1nccs1	8.23
CCN(C(=O)C1CSC2(C)CCC(=O)N12)c1nc2c(C)cccc2s1 (centres unmarked)	20.4
CCCCNC(=O)c1c(N)n(Cc2ccc3c(c2)OCO3)c2nc3ccccc3nc12	15.3
CCC(C)(C)c1ccc(OCC(=O)N(C)C)c(C(C)(C)CC)c1	-4.24
CCc1ccc(C(=O)NNC(=O)CCN2CCN(Cc3ccccc3)CC2)cc1	-19.8
O=C(NC1CCN(Cc2ccccc2)CC1)c1cccc(S(=O)(=O)Nc2cc(C(F)(F)F)ccc2Cl)c1	-48.8
COc1ccc(N2CC(C(=O)Nc3nnc(C4CCCCC4)s3)CC2=O)cc1 (centres unmarked)	4.63
Cc1cccc(OCCC(=O)Nc2ccc(F)c(F)c2)c1	-17.1
Cc1cc(SCC(=O)NN)c2cc(Br)ccc2n1	-1.57
O=C(c1cc(COc2ccc(F)cc2Cl)on1)N1CCCCCC1	-3.89
CC(=O)c1ccc(N2CCN(CCC#N)CC2)c(F)c1	6.77
CCn1c(NCc2ccccc2Cl)nc2ccccc21	5.39
O=C(O)CC(NS(=O)(=O)c1ccc(Br)cc1)c1ccco1 (centres unmarked)	0.143
COCC(C)OC(=O)/C(C#N)=C\c1coc2ccc(C)cc2c1=O (centres unmarked)	-20.9
